Data taken from PubChem BioAssay AID485364 (National Center for Advancing Translational Sciences (NCATS), 2010).
In all, about 360,000 compounds went through this assay and about 11,000 (3.1%) were called active. The inconclusive results got no clear call from the source; some entries with a clear call stand among them for comparison. Calls follow the shape of the dose curve; as a rule, active = well fitted inhibition curve with a large enough effect; inconclusive = small, poorly fitted or top-dose-only effect; inactive = no such curve, though single readings can be large or run the other way. No potency is given beside an inconclusive call; the fits are too rough.

Molecular target: Schistosoma mansoni thioredoxin glutathione reductase (TGR) (UniProt Q962Y6)
Assay: qHTS Assay for the Inhibitors of Schistosoma Mansoni Peroxiredoxins; also: nearly all actives have a fitted effect of over 60% in size
Details: purified TGR, DTNB reduction, TNB absorbance 405 nm; series mostly up to 114 µM
Text: Schistosomiasis is a major neglected tropical disease that currently affects over 200 million. It is caused by different species of flatworms, such as Schistosoma mansoni. Over the last century, drugs to treat the disease have evolved from potassium antimonyl tartrate, artemisinin, oxamniquine, to praziquantel, with praziquantel remaining the universally-used single drug of choice over the past three decades. However, transmission rates have changed little with praziquantel, and there is evidence for the development of drug resistant parasites. Because there is currently no suitable alternative therapy available, there is an urgent need to identify new targets and drugs for schistosomiasis treatment. Thioredoxin glutathione reductase (TGR), one uniquely positioned S. mansoni enzyme, has been identified as a major component of the worms' distinct and compressed antioxidant "firewall". TGR is a multifunctional enzyme that catalyzes the interconversion between reduced and oxidized forms of both glutathione (GSH) and thioredoxins, thus making it an attractive new antiparasitic target. Recently, a quantitative high-throughput screen of the NIH Molecular Libraries Small Molecule Repository (MLSMR, ~71K at the time of the screen in 2007) was performed using an assay that targeted both TGR and peroxiredoxin2 (Prx2, an H2O2-reducing enzymatic component of the S. mansoni redox "firewall") by following the decrease of NADPH fluorescence. […] Additional mechanistic link between exogenous NO donation and parasitic injury for the oxadiazole-2-oxide class of compounds was also expanded and better defined. Although the screen addressed both TGR and Prx2, the assay required post-screen target deconvolution for further characterization of the actives. In addition, the fluorescence assay was also subject to fluorescence interference from compound library members. We have developed a 1536-well-based kinetic HTS assay to address TGR alone. The assay followed the reduction of 5, 5'-dithiobis (2-nitrobenzoic acid) (DTNB) (Ellman's reagent) by NADPH and measured the increase in absorbance at 412 nm of the reaction product, TNB. […] This assay format can be used to screen the current MLSMR collection (with >300K compounds available) to find novel TGR inhibitors. Furoxan is a good choice to serve as a positive control in the primary HTS assay.
Three microliters of reagents (100 uM NADPH and 20 nM TGR or 100 uM NADPH as no-enzyme control) were dispensed into 1,536-well black clear-bottomed plates. Compounds (23 nL) were transferred via Kalypsys pin tool equipped with 1536-pin array (10 nL slotted pins, V&P Scientific, San Diego, CA). The plates were then be incubated for 15 min at room temperature, and 1 uL aliquot of 500 uM NADPH were added, immediately followed by a 1 uL aliquot of 15 mM DTNB to start the reaction. The plate was transferred to a ViewLux high-throughput CCD imager (Perkin-Elmer, Wellesley, MA) where kinetic measurements of the TNB absorbance were acquired using a 405 excitation filter. Throughout the screen, reagent bottles and all liquid lines were made light-tight to minimize reagent degradation. All screening operations were performed on a fully integrated robotic system (Kalypsys, San Diego, CA) containing one RX-130 and two RX-90 anthropomorphic robotic arms (Staubli, Duncan, SC). Library plates were screened starting from the lowest and proceeding to the highest concentration, and a "double-dipping" step of the highest concentration was required to access higher concentrations of compounds. Vehicle-only plates, with DMSO being pin-transferred to the entire column 5-48 compound area, were inserted uniformly at the beginning and the end of each library in order to monitor for and record any shifts in the background, which can be affected by reagent dispensers or loss in enzyme activity overtime. […]
Potency is read from the fitted curve at half-maximal effect; tags tell the direction and shape of the fitted curve.

| SMILES | Potency |
| --- | --- |
| O=C(COc1ccc(/C=N/NC(=O)c2ccccc2O)cc1)Nc1ccc([N+](=O)[O-])cc1 | inactive |
| COc1ccc(-c2c(C)c3ccc(O)cc3oc2=O)cc1OC | inactive |
| COC(=O)c1cccc(N(C(=O)CNC(=O)c2ccco2)C(C(=O)NC2CCCC2)c2ccco2)c1 (configuration not stated) | inconclusive [inhibitor, partial curve] |
| Nc1ccc2nc3c(=O)[nH]c(=S)[nH]c3nc2c1 | inconclusive [inhibitor, full curve, poor fit] |
| Cc1ccc(OCCC(=O)O)cc1 | inactive |
| CC(C(=O)Nc1cccc([N+](=O)[O-])c1)[n+]1ccccc1 (configuration not stated) | inconclusive [inhibitor, partial curve] |
| O=c1c2ccccc2nc(-c2ccco2)n1Cc1ccccc1 | active: 50.1 µM |
| CC12CCC(C(=O)Nc3nc4ccc(Br)cc4s3)(OC1=O)C2(C)C (configuration not stated) | inactive |
| COc1ccc(CN2CCNC(=O)C2CC(=O)NC2CCCC2)c(C)c1C (configuration not stated) | inconclusive [inhibitor, partial curve] |
| CCOc1ccc2c(c1)n([O-])c1c([n+]2=O)CCCC1 | active: 5.62 µM |
| CC(=O)Nc1ccc(-n2c(C)ccc2-c2ccccc2)cc1 | inconclusive [inhibitor, partial curve] |
| Cc1[nH]c2ccccc2c1CCN(Cc1cccnc1)C(=S)NC(C)(C)C | inconclusive [inhibitor, single point] |
| O=C(Nc1ccc2c(c1)OCO2)NC1CCN(Cc2ccccc2)CC1 | inactive |
| COc1cc(C2C(C(=O)c3ccc(C)o3)=C(O)C(=O)N2c2cc(C)on2)cc(Br)c1O (configuration not stated) | inconclusive [inhibitor, partial curve] |
| CCOc1ccc(-n2nc3ccc(NC(=O)c4ccc(-c5cccc(Cl)c5)o4)cc3n2)cc1 | inconclusive [inhibitor, partial curve] |
| Cc1ccccc1C(=O)Nc1c2c(nn1C(C)(C)C)CS(=O)(=O)C2 | inactive |
| O=C(c1ccco1)N1CCN(C(c2ccccn2)c2nnnn2C2CCCC2)CC1 (configuration not stated) | inconclusive [inhibitor, partial curve, poor fit] |
| CCCn1c(N)c(C(=O)CSc2nnc(C3CC3)n2Cc2ccccc2)c(=O)[nH]c1=O | inactive |
| CC(O)CNc1ccc(-c2n[nH]c(=O)c3ccccc23)cc1[N+](=O)[O-] (configuration not stated) | inactive |

| SMILES | Potency |
| --- | --- |
| Cc1cc(N2C(=O)C(O)=C(C(=O)c3ccc(C)o3)C2c2ccc(OCc3ccccc3)cc2)no1 (configuration not stated) | inconclusive [inhibitor, partial curve, poor fit] |
| CC1(C)CC2(CC(c3ccccc3F)c3ccc(O)c(O)c3O2)NC(=S)N1 (configuration not stated) | active: 1.12 µM |
| COc1ccc(-c2[nH]nc3c2C(c2ccccc2OC(=O)N2CCOCC2)C(C#N)=C(N)O3)cc1 (configuration not stated) | inactive |
| Cc1ccc(/C=C2/C(=O)NC(=O)N(CCc3ccc(F)cc3)C2=O)s1 | inconclusive [inhibitor, full curve, poor fit] |
| COc1ccc(NC(=S)Nc2cccc(Cl)c2Cl)cc1OC | active: 28.2 µM |
| Cc1ccc2[nH]c(SCC(=O)N3CCOCC3)nc2c1C | inactive |
| CC[C@@H](CCC=C(C)C)C(=O)N(Cc1ccccc1)c1ccccc1 | inconclusive [inhibitor, partial curve] |
| O=C(O)c1ccc(/C=C2\COc3ccccc3C2=O)cc1 | inconclusive [inhibitor, partial curve] |
| COc1ccc(-c2ccc(CCC(=O)O)n2CC(=O)Nc2cccc(OC)c2)cc1 | inconclusive [inhibitor, partial curve] |
| O=C(Nc1ccccc1C(F)(F)F)c1cccn(Cc2ccccc2)c1=O | inconclusive [inhibitor, single point] |
| COc1ccc(NC(=O)Cn2cc(S(=O)(=O)Cc3ccc(F)cc3)c3ccccc32)cc1OC | inactive |
| O=C(NNC(=O)c1ccc(Cl)cc1Cl)c1csc(-c2cccnc2)n1 | inactive |
| Cc1cc(C(=O)N/N=C/c2ccc([N+](=O)[O-])o2)c(C)o1 | inconclusive [inhibitor, full curve, poor fit] |
| CC1=C(C(N)=O)C(c2ccc(C)o2)C(C(N)=O)=C(C)N1 | active: 44.7 µM |
| O=C(NCCS(=O)(=O)c1ccc(Br)cc1)c1ccccc1Cl | inconclusive [inhibitor, single point] |
| COC(=O)C1=C(C(=O)OC)[C@@H]2N(Cc3ccccc3)c3ccccc3[C@@]23C[C@@H](CO)N(C(=O)NC2CCCC2)C3=N1 | inconclusive [inhibitor, full curve] |
| CCOC(=O)c1cc2c(=O)n3ccccc3nc2n(Cc2ccco2)c1=NC(=O)c1c(F)cccc1Cl | active: 3.98 µM |
| S=C(NCc1ccccc1)NCc1ccco1 | inconclusive [inhibitor, partial curve, poor fit] |
